Structures are written as SMILES. The list shows a part of the results.

The test system of this assay is HSkMC (human skeletal muscle cells). As to the kind of experiment: cytotoxicity call (relative viability < 0.9). The settings on record: 10 µM.
Regarding `Cc1noc(C)c1S(=O)(=O)Nc1ccc2c(c1)C(=O)N([C@@H](C)CO)C[C@@H](C)[C@H](CN(C)CC1CCCCC1)OCCCC[C@@H](C)O2`, the cytotoxicity call is “inactive”. Next, `COc1ccc(CN(C)C[C@@H]2OCCCC[C@H](C)Oc3ccc(NC(=O)NC4CCCCC4)cc3C(=O)N([C@H](C)CO)C[C@@H]2C)cc1`: “inactive”; `C[C@@H]1CCCCO[C@H](CN(C)Cc2ccc(C(F)(F)F)cc2)[C@@H](C)CN([C@H](C)CO)C(=O)c2cc(NC(=O)NC3CCCCC3)ccc2O1`: “inactive”; `C[C@H]1CCCCO[C@@H](CN(C)Cc2ccc(C(=O)O)cc2)[C@@H](C)CN([C@@H](C)CO)C(=O)c2cc(NC(=O)Nc3ccc4c(c3)OCO4)ccc2O1`: “inactive”. `CC(C)NC[C@H]1CCC(=O)N1`: the cytotoxicity call is “inactive”.

`C[C@H]1ON(c2ccc(C(=O)OC(C)(C)C)cc2)[C@@H](c2ccc(O)cc2)[C@@H]1C(=O)N1C(=O)OC[C@@H]1c1ccccc1`: the cytotoxicity call is “inactive”. `C[C@@H]1CN([C@H](C)CO)S(=O)(=O)c2ccc(-c3cncnc3)cc2O[C@H]1CN(C)C(=O)c1cccc(F)c1`: the cytotoxicity call was “inactive”. Consider `COC(=O)CCCCCCNC(=O)c1ccc(NCc2cn(Cc3ccc(C(=O)c4ccc(Cn5cc(CNc6ccc(C(=O)NCCCCCCC(=O)OC)cc6)nn5)cc4)cc3)nn2)cc1`, for which the cytotoxicity call was “inactive”.

Turning to `C[C@H]1CN([C@@H](C)CO)C(=O)Cc2cc(NC(=O)c3ccncc3)ccc2O[C@@H]1CN(C)Cc1ccc(Oc2ccccc2)cc1`, the cytotoxicity call was “inactive”. With `C[C@@H]1CN([C@H](C)CO)C(=O)Cc2cc(NS(C)(=O)=O)ccc2O[C@H]1CN(C)S(=O)(=O)c1ccccc1`, the cytotoxicity call was “inactive”. Turning to `C[C@H]1CN([C@@H](C)CO)C(=O)CCCn2nncc2CO[C@H]1CN(C)C(=O)Nc1cccc(Oc2ccccn2)c1`, the cytotoxicity call was “inactive”. As for `C=CCC[C@H](Cc1ccc(F)cc1)C(=O)OC[C@H]1CCCN1C(=O)[C@@H](CC=C)CC(=O)N(CCO)Cc1ccccc1`, the cytotoxicity call was “active”. As for `CCCc1c(SCCCOc2ccc(C(C)=O)c(OCCCC(=O)O)c2CCC)ccc(C(C)=O)c1O`, the cytotoxicity call was “inactive”. As to `CCCCCCCCCCCCCCCCCCOC[C@H](COP(=O)(O)O[C@H]1[C@@H](O)[C@@H](O)[C@@H](O)C[C@@H]1OC)OC`, the cytotoxicity call was “inactive”.

With `O=C(C[C@@H]1CC[C@@H]2[C@H](COC[C@H](O)CN2S(=O)(=O)c2ccc(Cl)cc2)O1)N1CCc2ccccc2C1`, the cytotoxicity call was “inactive”. For `O=C(O)Cc1cccc(OCCCN(Cc2cccc(C(F)(F)F)c2Cl)CC(c2ccccc2)c2ccccc2)c1`, the cytotoxicity call was “inactive”. Next, `O=C(Cc1ccccn1)NCC[C@@H]1CC[C@H](NC(=O)CN2CCOCC2)[C@@H](CO)O1`: “inactive”; `C[C@@H]1CN([C@@H](C)CO)C(=O)c2cc(NC(=O)Nc3ccccc3)ccc2O[C@@H](C)CCCCO[C@H]1CN(C)S(=O)(=O)c1cccc(F)c1`: “inactive”.

For the compound `COc1ccc(NC(=O)N(C)C[C@H]2OCc3cnnn3CCCC(=O)N([C@@H](C)CO)C[C@@H]2C)c(OC)c1`, the cytotoxicity call is “inactive”. Take `CSC1=N[C@@]2(C)CCCC[C@@H]2c2c1ccc1ccccc21`: the cytotoxicity call was “inactive”. Turning to `Cc1nn(-c2nc3c(c(=O)n(CC(N)=O)c(=O)n3C)n2C)c(C)c1C`, the cytotoxicity call is “inactive”.

`C[C@@H]1CN([C@@H](C)CO)S(=O)(=O)c2ccc(C#CC(C)(C)O)cc2O[C@H]1CN(C)C(=O)CN(C)C`: the cytotoxicity call is “inactive”. Next, `C[C@@H]1CCCCO[C@@H](CN(C)C(=O)CCC(F)(F)F)[C@H](C)CN([C@@H](C)CO)C(=O)c2cc(NC(=O)c3ccccc3)ccc2O1`: “inactive”; `C=CCNC(=O)[C@H]1[C@@H]2C(=O)O[C@@H](c3ccccc3)[C@@H](c3ccccc3)N2[C@@H](c2ccc(O)cc2)[C@]12C(=O)N(C(=O)OCCOC)c1ccc(C#Cc3ccc(OC)cc3)cc12`: “inactive”.

On to `CCC(C)CCCCC(=O)NC(CCN)C(=O)NC(C(=O)NC(CCN)C(=O)NC1CCNC(=O)C(C(C)O)NC(=O)C(CCN)NC(=O)C(CCN)NC(=O)C(CC(C)C)NC(=O)C(Cc2ccccc2)NC(=O)C(CCN)NC1=O)C(C)O.O=S(=O)(O)O` (centres undefined), for which the cytotoxicity call is “inactive”. Turning to `C[C@@H]1CN([C@H](C)CO)C(=O)c2cc(C#Cc3ccccc3)cnc2O[C@@H]1CN(C)C(=O)CCN1CCCCC1`, the cytotoxicity call is “inactive”. For `CN(C)Cc1ccc(O)c(CN(C)C)n1`, the cytotoxicity call was “inactive”. For the compound `CC1=C(C(=O)O)N2C(=O)[C@@H](NC(=O)[C@@H](N)c3ccccc3)[C@H]2SC1`, the cytotoxicity call is “inactive”. As to `CO[C@@H]1CN(C)C(=O)c2ccc(NS(C)(=O)=O)cc2OC[C@@H](C)N(S(C)(=O)=O)C[C@H]1C`, the cytotoxicity call is “inactive”.
